First the molecules themselves.
B1: GFP-tagged CBX8, overexpressed (protein, UniProt Q9HC52 1-389)
chain: MELSAVGERVFAAEALLKRRIRKGRMEYLVKWKGWSQKYSTWEPEENILDARLLAAFEEREREMELYGPKKRGPKPKTFLLKAQAKAKAKTYEFRSDSARGIRIPYPGRSPQDLASTSRAREGLRNMGLSPPASSTSTSSTCRAEAPRDRDRDRDRDRERDRERERERERERERERERERGTSRVDDKPSSPGDSSKKRGPKPRKELPDPSQRPLGEPSAGLGEYLKGRKLDDTPSGAGKFPAGHSVIQLARRQDSDLVQCGVTSPSSAEATGKLAVDTFPARVIKHRAAFLEAKGQGALDPNGTRVRHGSGPPSSGGGLYRDMGAQGGRPSLIARIPVARILGDPEEESWSPSLTNLEKVVVTDVTSNFLTVTIKESNTDQGFFKEKR
B2: HPH1 (Rae28), untagged, overexpressed (protein, UniProt P78364 1-1004)
chain: METESEQNSNSTNGSSSSGGSSRPQIAQMSLYERQAVQALQALQRQPNAAQYFHQFMLQQQLSNAQLHSLAAVQQATIAASRQASSPNTSTTQQQTTTTQASINLATTSAAQLISRSQSVSSPSATTLTQSVLLGNTTSPPLNQSQAQMYLRPQLGNLLQVNRTLGRNVPLASQLILMPNGAVAAVQQEVPSAQSPGVHADADQVQNLAVRNQQASAQGPQMQGSTQKAIPPGASPVSSLSQASSQALAVAQASSGATNQSLNLSQAGGGSGNSIPGSMGPGGGGQAHGGLGQLPSSGMGGGSCPRKGTGVVQPLPAAQTVTVSQGSQTEAESAAAKKAEADGSGQQNVGMNLTRTATPAPSQTLISSATYTQIQPHSLIQQQQQIHLQQKQVVIQQQIAIHHQQQFQHRQSQLLHTATHLQLAQQQQQQQQQQQQQQQPQATTLTAPQPPQVPPTQQVPPSQSQQQAQTLVVQPMLQSSPLSLPPDAAPKPPIPIQSKPPVAPIKPPQLGAAKMSAAQQPPPHIPVQVVGTRQPGTAQAQALGLAQLAAAVPTSRGMPGTVQSGQAHLASSPPSSQAPGALQECPPTLAPGMTLAPVQGTAHVVKGGATTSSPVVAQVPAAFYMQSVHLPGKPQTLAVKRKADSEEERDDVSTLGSMLPAKASPVAESPKVMDEKSSLGEKAESVANVNANTPSSELVALTPAPSVPPPTLAMVSRQMGDSKPPQAIVKPQILTHIIEGFVIQEGAEPFPVGCSQLLKESEKPLQTGLPTGLTENQSGGPLGVDSPSAELDKKANLLKCEYCGKYAPAEQFRGSKRFCSMTCAKRYNVSCSHQFRLKRKKMKEFQEANYARVRRRGPRRSSSDIARAKIQGKCHRGQEDSSRGSDNSSYDEALSPTSPGPLSVRAGHGERDLGNPNTAPPTPELHGINPVFLSSNPSRWSVEEVYEFIASLQGCQEIAEEFRSQEIDGQALLLLKEEHLMSAMNIKLGPALKICAKINVLKET
B3: HPH1, endogenous (protein, UniProt P78364 1-1004)
chain: B2 chain
B4: GFP-tagged CBX4, overexpressed (protein, UniProt O00257 1-560)
chain: MELPAVGEHVFAVESIEKKRIRKGRVEYLVKWRGWSPKYNTWEPEENILDPRLLIAFQNRERQEQLMGYRKRGPKPKPLVVQVPTFARRSNVLTGLQDSSTDNRAKLDLGAQGKGQGHQYELNSKKHHQYQPHSKERAGKPPPPGKSGKYYYQLNSKKHHPYQPDPKMYDLQYQGGHKEAPSPTCPDLGAKSHPPDKWAQGAGAKGYLGAVKPLAGAAGAPGKGSEKGPPNGMMPAPKEAVTGNGIGGKMKIVKNKNKNGRIVIVMSKYMENGMQAVKIKSGEVAEGEARSPSHKKRAADERHPPADRTFKKAAGAEEKKVEAPPKRREEEVSGVSDPQPQDAGSRKLSPTKEAFGEQPLQLTTKPDLLAWDPARNTHPPSHHPHPHPHHHHHHHHHHHHAVGLNLSHVRKRCLSETHGEREPCKKRLTARSISTPTCLGGSPAAERPADLPPAAALPQPEVILLDSDLDEPIDLRCVKTRSEAGEPPSSLQVKPETPASAAVAVAAAAAPTTTAEKPPAEAQDEPAESLSEFKPFFGNIIITDVTANCLTVTFKEYVTV
B5: Myc-tagged HPH2, overexpressed (protein, UniProt Q8IXK0 1-858)
chain: MENELPVPHTSSSACATSSTSGASSSSGCNNSSSGGSGRPTGPQISVYSGIPDRQTVQVIQQALHRQPSTAAQYLQQMYAAQQQHLMLQTAALQQQHLSSAQLQSLAAVQQASLVSNRQGSTSGSNVSAQAPAQSSSINLAASPAAAQLLNRAQSVNSAAASGIAQQAVLLGNTSSPALTASQAQMYLRAQMLIFTPTATVATVQPELGTGSPARPPTPAQVQNLTLRTQQTPAAAASGPTPTQPVLPSLALKPTPGGSQPLPTPAQSRNTAQASPAGAKPGIADSVMEPHKKGDGNSSVPGSMEGRAGLSRTVPAVAAHPLIAPAYAQLQPHQLLPQPSSKHLQPQFVIQQQPQPQQQQPPPQQSRPVLQAEPHPQLASVSPSVALQPSSEAHAMPLGPVTPALPLQCPTANLHKPGGSQQCHPPTPDTGPQNGHPEGVPHTPQRRFQHTSAVILQLQPASPPQQCVPDDWKEVAPGEKSVPETRSGPSPHQQAIVTAMPGGLPVPTSPNIQPSPAHETGQGIVHALTDLSSPGMTSGNGNSASSIAGTAPQNGENKPPQAIVKPQILTHVIEGFVIQEGAEPFPVGRSSLLVGNLKKKYAQGFLPEKLPQQDHTTTTDSEMEEPYLQESKEEGAPLKLKCELCGRVDFAYKFKRSKRFCSMACAKRYNVGCTKRVGLFHSDRSKLQKAGAATHNRRRASKASLPPLTKDTKKQPTGTVPLSVTAALQLTHSQEDSSRCSDNSSYEEPLSPISASSSTSRRRQGQRDLELPDMHMRDLVGMGHHFLPSEPTKWNVEDVYEFIRSLPGCQEIAEEFRAQEIDGQALLLLKEDHLMSAMNIKLGPALKIYARISMLKDS

Sequences of proteins named here, by UniProt entry; tags and fusion partners are left off.
UniProt Q96LA8: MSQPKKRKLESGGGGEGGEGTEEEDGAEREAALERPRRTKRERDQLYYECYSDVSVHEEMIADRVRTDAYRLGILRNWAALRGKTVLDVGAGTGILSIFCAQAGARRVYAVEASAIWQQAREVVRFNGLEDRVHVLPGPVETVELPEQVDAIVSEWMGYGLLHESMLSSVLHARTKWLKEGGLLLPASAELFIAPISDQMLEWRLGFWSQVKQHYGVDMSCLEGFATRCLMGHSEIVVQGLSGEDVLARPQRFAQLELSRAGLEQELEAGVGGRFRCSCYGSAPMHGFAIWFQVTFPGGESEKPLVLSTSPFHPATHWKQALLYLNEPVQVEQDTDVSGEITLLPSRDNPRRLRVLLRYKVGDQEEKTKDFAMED

Experimental findings from paper PMC4746130 are described below.

These are yes or no findings as the source states them, for the method shown. In cells and extracts the contact can be indirect. Some entries that bind do so weakly or less than the wild type. Where a sequence is shown, tags or fusion partners need not be part of it.

The first assay concerns the target Protein arginine methyltransferase 6 (PRMT6), endogenous (human (endogenous in HEK293)) (UniProt Q96LA8). The experiment in a line: co-IP; HEK293 protein extracts (untransfected or transfected, harvested 48 h after transfection); immunoprecipitation of endogenous PRMT6 with anti-PRMT6, isotype-specific IgG as control; Western blot of precipitates. A general note: Immunoblotting shows a protein as a band on a membrane.
With B1, the binding result was “binds”.
Still for that read-out and setting: the result for B2 reads “binds”.
With B3, the binding result is recorded as “binds”.
With B4, the binding result is “binds”.
Still for that read-out and setting: the result for B5 reads “binds”.

A further assay shares this target. As to the kind of experiment: co-IP; as the anti-PRMT6 IPs from HEK293 extracts, with ethidium bromide added in the IPs; data not shown.
With B1, the binding entry is given as “binds”.
Regarding B2, the binding entry is “binds”.
With B3, the binding result is recorded as “binds”.
Still for that read-out and setting: the result for B4 reads “binds”.
In the case of B5, the binding result was “binds”.

For another assay the target is unchanged. As to the kind of experiment: co-IP; Superose 6 gel filtration fractions of extracts of transfected HEK293 cells; immunoprecipitation with anti-PRMT6 from each fraction; Western blot for the tags. A general note: Size exclusion chromatography separates by hydrodynamic size, large species first.
Consider B1, for which the binding result was “binds”.
Consider B5, for which the binding result is recorded as “binds”.
